In the supplement of paper PMC12217912:
The list shows a part of the results. Sequences were assembled here from the parent chain. Inactive controls read about 0.05.

B1: TEV protease; numbered along this chain (parent)
chain: MGESLFKGPRDYNPISSSICHLTNESDGHTTSLYGIGFGPFIITNKHLFRRNNGTLVVQSLHGVFKVKDTTTLQQHLVDGRDMIIIRMPKDFPPFPQKLKFREPQREERICLVTTNFQTKSMSSMVSDTSCTFPSGDGIFWKHWIQTKDGQCGSPLVSTRDGFIVGIHSASNFTNTNNYFTSVPKNFMELLTNQEAQQWVSGWRLNADSVLWGGHKVFMVKPEEPFQPVKEATQL

Variants of: B1
Assay: raw area under fraction-flipped curve 0-4 h after induction (AUC4h, not background-subtracted), DNA-recorder readout of cleavage of the substrate (dimensionless); higher = more cleavage of the substrate by the protease variant
Details: temperature: 34 °C; time window: 0-4 h after rhamnose induction
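Also: Bxb1 expression induced with 0.2% (w/v) L-rhamnose at OD600 near 0.5, cultures sampled hourly, flipped fraction per protease–substrate barcode pair counted by paired-end Illumina sequencing.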

Variant	area with substrate ENLYFDS	area with substrate ENLYFFS	area with substrate ENLYFGS	area with substrate ENLYFIS	area with substrate ENLYFKS	area with substrate ENLYFMS	area with substrate ENLYFPS	area with substrate ENLYFRS	area with substrate ENLYFTS	area with substrate ENLYFVS
G214R	0.0666	0.0714	0.0474	0.059	0.0817	0.0641	0.0706	0.0703	0.0467	0.0737
G2L	0.0522	0.0391	–	0.0455	0.065	–	0.0609	0.0548	0.0543	–
Q118D	0.0679	–	–	–	–	0.0631	0.0535	–	–	–
G162I	0.057	–	–	0.0482	0.0589	0.0641	0.066	–	–	–
V67K	0.0498	–	–	0.0467	0.0634	0.0615	0.0608	0.0357	0.0849	0.0714
I110L	0.05	0.0718	0.0578	0.0546	0.061	0.0524	0.0654	0.0565	0.0683	–
G80S	0.0589	0.0867	0.0718	0.045	0.0618	0.0432	0.0633	0.0579	–	–
T174N	0.0564	0.0705	0.0663	–	0.0291	0.0778	0.0367	0.065	0.0497	–
V113R	0.0116	0.0735	0.0734	0.0499	0.0657	0.0565	0.0413	–	0.0712	–
N178D	0.0566	–	–	–	–	–	0.0693	0.0556	0.0537	–
I110Y	–	0.0712	–	0.0568	–	0.0748	–	0.0464	–	0.068
V78R	–	0.0867	–	–	0.031	0.0528	0.0478	0.0391	0.0511	0.0625
S124N	–	–	–	0.0609	0.0753	–	0.0571	–	–	0.0589
G2R	–	–	–	0.0487	–	0.0739	–	0.0626	0.0567	0.0495
W141E	–	0.0618	–	0.0542	0.0625	0.0564	–	0.0596	–	–
T114E	–	0.0611	–	0.0649	0.0497	–	0.0529	0.0686	0.0744	–

Variant	area with substrate ENLYFDS	area with substrate ENLYFFS	area with substrate ENLYFGS	area with substrate ENLYFIS	area with substrate ENLYFKS	area with substrate ENLYFMS	area with substrate ENLYFPS	area with substrate ENLYFRS	area with substrate ENLYFTS	area with substrate ENLYFVS
K90R	–	0.0628	–	–	–	–	0.0627	–	–	–
S171Q	–	0.0745	–	0.0494	–	0.0698	–	–	–	–
K148V	–	0.0692	–	0.0837	0.0681	0.0787	0.0615	–	–	0.0425
D69K	–	–	–	0.0604	0.066	0.0748	–	0.0348	–	0.0616
F95I	–	–	–	–	–	0.064	–	0.0421	–	–
N116H	–	0.0563	–	–	0.0668	0.0709	0.0612	0.0682	0.0628	–
E107I	–	0.0615	–	–	–	0.0437	0.0904	0.0447	0.0649	–
W203I	–	–	0.0483	0.0503	–	–	0.0662	0.0582	0.0544	–
D91I	–	0.0663	–	0.0516	–	0.0657	0.051	0.0452	–	–
N178E	–	0.0685	0.0778	0.0516	–	0.0789	–	–	–	–
P94R	–	–	–	–	0.0656	0.0733	–	–	0.0351	–
H62L	–	0.0586	–	–	–	0.0562	0.0554	–	–	–
L191S	–	–	–	0.0596	–	0.0353	–	–	0.0592	0.0555
T114I	–	0.0627	–	0.0646	0.0584	0.0368	0.0595	–	–	0.0529
H143F	–	–	–	0.0594	–	0.0478	0.0642	0.0605	0.0664	–
S123Y	–	0.0969	–	0.0686	0.0654	0.0488	0.0634	–	0.0059	0.0634

Same assay, conditions: temperature: 34 °C; time window: 0-4 h after rhamnose induction

Variant	area with substrate ENLYFES	area with substrate ENLYFHS	area with substrate ENLYFNS	area with substrate ENLYFWS	area with substrate ENLYFLS	area with substrate ENLYFSS	area with substrate ENLYFYS
G2L	0.0252	0.0535	0.0516	0.0439	–	–	–
Q118D	0.065	–	–	0.0527	0.0571	–	–
G162I	–	–	–	–	–	0.0465	0.0484
V67K	0.0646	0.0468	0.0293	0.0596	0.0855	–	–
I110L	0.0542	0.0778	0.0638	–	0.0601	–	0.0444
G80S	0.0579	–	–	0.0441	–	–	–
T174N	0.0618	0.0588	0.0639	–	–	–	–
V113R	0.0528	–	0.0626	0.0569	0.0606	–	–
N178D	0.0793	–	0.0588	–	0.0486	–	0.0665
I110Y	0.0669	–	–	0.0461	–	–	–
V78R	0.0496	0.0611	–	–	0.0494	0.0465	–
S124N	0.0719	–	0.0629	–	0.0498	0.0656	0.0536
G2R	0.0773	0.0582	–	0.0535	–	0.0689	–
W141E	0.0462	–	–	–	0.0502	0.0562	–
T114E	0.0496	–	0.0427	–	–	–	–
K90R	0.0746	–	–	–	0.0306	–	0.0999

Variant	area with substrate ENLYFES	area with substrate ENLYFHS	area with substrate ENLYFNS	area with substrate ENLYFWS	area with substrate ENLYFLS	area with substrate ENLYFSS	area with substrate ENLYFYS
S171Q	0.0649	–	–	0.0626	–	–	–
K148V	0.0716	0.0834	0.0567	0.0484	–	–	0.0516
D69K	0.0576	–	0.0754	–	–	–	–
F95I	0.0581	–	–	–	–	–	0.0443
N116H	0.0506	–	–	–	–	–	–
E107I	0.0689	–	–	0.0883	–	–	–
W203I	0.0521	0.0573	–	–	0.0578	–	0.0616
D91I	0.0593	0.0454	0.0631	–	–	–	–
N178E	0.0458	0.0618	–	–	–	0.0475	0.0651
P94R	0.0659	0.0576	–	0.0512	–	0.0465	0.0575
H62L	0.0731	0.0578	0.0373	0.0511	–	0.059	0.054
L191S	0.0642	–	0.0528	0.0371	–	–	0.0181
T114I	0.0355	0.0601	0.0647	–	0.0571	0.0623	0.0483
H143F	0.0631	0.048	–	–	–	0.0648	–
S123Y	0.0532	–	0.0642	–	–	–	0.0508
